Measurements reported in article PMC10668032.
The list shows a part of the results. At the low end of the ranking, values are background and their order means little.

The sequences below were run against SIX1-Q177R homeodomain (UniProt Q15475) (assay: universal protein binding microarray). Conditions: Universal all-10-mer PBM (8x60K, AMADID 030236), 300 nM GST-tagged protein, Alexa Fluor 488 anti-GST; buffer, salt, pH and temperature not stated; high values mean tight binding; most listed sequences are background and not binding sites; double strand, one strand shown.

| Sequence | binding signal [E-score] |
| --- | --- |
| ACGGTAGC | -0.0864 |
| GTTTAAAA | -0.107 |
| ACTATGCC | 0.0123 |
| CGCTCAGC | 0.0793 |
| AATAGAAC | -0.0938 |
| ATGGGGGC | -0.111 |
| CTGTCAGC | -0.278 |
| ACGAAGCT | -0.135 |
| CGCTGTCC | -0.239 |
| CCTGAGTA | 0.0767 |
| ACTGAAAA | -0.124 |
| AGCGTAAA | -0.0617 |
| GGTTAACA | 0.224 |
| AAGGCCTT | -0.39 |
| CCCAGGGG | 0.0827 |
| CGACTCGC | 0.0879 |
| CCGTTGGA | -0.136 |
| GATGCTCA | -0.37 |
| ATAGAGAT | -0.292 |
| CCGGCGAC | 0.00878 |
| CGGGGGTC | 0.314 |
| CTTGTTGC | -0.197 |
| GAGTCGCC | 0.0779 |
| CCAATGCA | 0.0653 |
| CGGTTCGC | -0.207 |

| Sequence | binding signal [E-score] |
| --- | --- |
| CATTAGCA | -0.0717 |
| ACTTGTTG | -0.209 |
| GATAATAC | 0.157 |
| GCGTCCCC | -0.0511 |
| TGGTTCAA | 0.0105 |
| GCAAGAAA | -0.124 |
| GATACACC | 0.469 |
| AGAGATGC | -0.0601 |
| CCGCTGTC | -0.215 |
| CTCTTTCC | -0.234 |
| ATACCTAC | 0.224 |
| GAGTTCAC | 0.0168 |
| CAAACTGC | -0.174 |
| CTGCAGCC | -0.0817 |
| CCTCTTTA | 0.171 |
| ACAACCCC | 0.207 |
| CAATCAGG | -0.14 |
| GGGATGAA | -0.0203 |
| CCGCCGAC | 0.249 |
| ATTAATCA | -0.077 |
| AGAGGAAG | -0.0801 |
| CGAAGCCC | -0.106 |
| ACCCAGTG | 0.21 |
| CTATTCGA | -0.189 |
| CCTGGCAC | 0.0725 |

| Sequence | binding signal [E-score] |
| --- | --- |
| ACTGTTGG | -0.22 |
| GCGCGCCA | -0.198 |
| ATAATGGC | -0.00598 |
| CGCGGGAG | 0.132 |
| GAGTGGGC | -0.19 |
| ATGTCATC | -0.197 |
| AGCTTAAC | -0.0566 |
| ACGCGACG | 0.0991 |
| CTGTGTGA | 0.114 |
| ATCATACA | 0.147 |
| ATCTAAAC | -0.0978 |
| ATGCATAG | -0.0129 |
| AGGTCTCG | -0.0514 |
| CGAGCATC | -0.129 |
| GTCCATCA | -0.000235 |
| CACTCCTC | 0.201 |
| AGGATAGA | -0.0391 |
| ACCGGGGG | 0.238 |
| CTGAGTCA | 0.0349 |
| AGCTTCAT | -0.269 |
| CACACGCA | 0.32 |
| CATAGGAA | -0.0697 |
| AGTTATGC | -0.0843 |
| ACGGCTTA | -0.0699 |
| ACCCCTCG | 0.307 |

| Sequence | binding signal [E-score] |
| --- | --- |
| GGGGCCGA | -0.175 |
| CTCGTTAA | -0.00649 |
| CAGCGGCG | -0.0815 |
| TCTCTTAA | -0.166 |
| TCTAGAAA | -0.0841 |
| ATTCGAGC | -0.149 |
| GGTGCTAC | 0.183 |
| CCGCAGCA | -0.0902 |
| GATCGGAA | -0.208 |
| ATCGAAAC | -0.0983 |
| AGACATAC | -0.171 |
| CCCCAAAG | 0.0256 |
| ACCGCATG | -0.119 |
| GTCCCCAA | -0.108 |
| AGGTTGAA | -0.0927 |
| GGTAGTTA | 0.0694 |
| GCTGGACA | -0.00889 |
| CCGTAATA | -0.0219 |
| CATAGCGG | -0.0787 |
| CTTCGCCC | -0.109 |
| GAGGGGCC | -0.0293 |
| AAAGCGTC | -0.0369 |
| AGGCCAGG | -0.157 |
| CATCTGGG | 0.0556 |
| AATATGCC | 0.0204 |

| Sequence | binding signal [E-score] |
| --- | --- |
| CGATCAAG | 0.00342 |
| GCAGATGC | -0.119 |
| GCCCAGTA | 0.0291 |
| CCGCCGGA | 0.00758 |
| GGAGTGCA | 0.17 |
| CCTCGAGG | 0.0223 |
| AGAGCTGG | 0.0405 |
| ATAATGAG | -0.152 |
| CGAAACGA | -0.195 |
| TGTAAACA | 0.262 |
| GCATGGAC | -0.0266 |
| AAATCTAC | 0.0113 |
| CCTGACGC | 0.161 |
| GTGTGACA | 0.436 |
| AATTTGTG | 0.000525 |
| CAAGGGTA | 0.19 |
| GTGTGATA | 0.345 |
| TACAAACA | 0.111 |
| CCAGGTCG | 0.0732 |
| AGACTCTA | -0.324 |
| CAGCAAGA | -0.163 |
| ATGTGTTA | 0.109 |
| CCTTAGAG | -0.047 |
| ATCTGTCG | -0.0424 |
| TTATTGAA | -0.175 |

| Sequence | binding signal [E-score] |
| --- | --- |
| CGGTAGCC | -0.00436 |
| CGTAGTTA | -0.0498 |
| TCCCGGAA | -0.0101 |
| AAGCATAA | -0.126 |
| GCTTGACC | -0.0802 |
| AACTGGGG | 0.0466 |
| CCAATGCC | -0.262 |
| GCAGCAGA | -0.153 |
| AAAAGGTG | 0.195 |
| ATACGCAT | -0.0256 |
| AGCGAAAG | -0.255 |
| ACTTGACG | 0.017 |
| CGGGCTCC | -0.093 |
| CCTTGCCG | -0.212 |
| GCGTGTCC | 0.412 |
| GGGAATAC | 0.0973 |
| GCATCGGA | -0.234 |
| CAAAGTGC | -0.135 |
| ACCATGTG | 0.125 |
| AGCTCTTA | -0.00688 |
| GGTATCAA | 0.325 |
| AGAAGATC | -0.244 |
| ATAACCAG | 0.00928 |
| ACTGAGGC | -0.241 |
| CCAATTGC | -0.257 |

| Sequence | binding signal [E-score] |
| --- | --- |
| CTAGCAAG | -0.0881 |
| AGAGACTG | -0.137 |
| ACCCGGAA | 0.272 |
| TGATGCCA | 0.0543 |
| ACTGTAAT | 0.0173 |
| GGAATCAC | -0.00797 |
| GCGGAGTA | 0.241 |
| CCGTTGGC | 0.0314 |
| ATTGAATG | 0.0654 |
| TCCGACGA | -0.134 |
| CGGGATAC | 0.281 |
| CTGGCGCC | -0.25 |
| AAATCCCC | 0.122 |
| GAGTTGTA | -0.0303 |
| GATACCAC | 0.325 |
| TAGAGGGA | -0.0889 |
| AGAGAATC | -0.167 |
| TTGATAAA | -0.154 |
| ACATGAAC | -0.0781 |
| AGCCCAAG | -0.342 |
| GAAAGGGC | -0.32 |
| ACTCGAAG | -0.0475 |
